Measurements taken from PubChem BioAssay (NCATS).
This list was built around the results that the source calls inconclusive (neither active nor inactive); the mix of calls is not that of the screen. Potencies of inconclusive entries are left out as doubtful fits. Active and inactive are the calls of the source. Calls come from the whole dose curve; as a rule, active = well fitted cell-killing curve with a large enough effect; inconclusive = small, poorly fitted or top-dose-only effect, or effect the other way; inactive = no such curve, though single readings can be large or run the other way.

Assay: Viability qHTS for spleen associated tyrosine kinase inhibitor (SYKi) drug resistant MV4-11 cells (AID 1963824); note: nearly all actives have a fitted effect of over 35% in size
Settings: SYKi-resistant MV4-11 viability, CellTiter-Glo, 72 h; series mostly up to 45 µM
Outline: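 SYK inhibitor-resistant MV4-11 AML cells, 500 per well, added to predispensed compounds and incubated 72 hr at 37 C, 5% CO2. Viability measured by CellTiter-Glo luminescence after 10 min at room temperature.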
Potency is the fitted concentration of half-maximal effect; tags give direction and shape of the fitted curve.

| SMILES | Potency | viability, % of control |
| --- | --- | --- |
| O=c1cc(OCc2ccc(F)cc2)ccn1-c1ccc(OCCN2CCCC2)cc1 | inconclusive [cytotoxic, partial curve] |  |
| CCOc1nc2cccc(C(=O)O)c2n1Cc1ccc(-c2ccccc2-c2noc(=O)[nH]2)cc1 | inconclusive [cytotoxic, single point] |  |
| Nc1ccc(/C=C/c2ccc(N)cc2S(=O)(=O)O)c(S(=O)(=O)O)c1 |  | inactive: 94.1% [at 0.588 µM] |
| CC(=O)c1ccc(O)c(C(N)=O)c1 | inactive |  |
| CCNC(=O)C1CC(F)(c2ccc(CN3CCCC3)c(F)c2)C1 (stereo unspecified) | inactive |  |
| [O-][n+]1cccc(/C(Cl)=N/OC[C@@H](O)CN2CCCCC2)c1 | inactive |  |
| COc1cc(C(=O)NCCCCCC(=O)O)cc(OC)c1OC | inconclusive [cytotoxic, single point] |  |
| CN1CC2CN(c3ccc4oc5ccccc5c(=O)c4c3)CC2C1 (stereo unspecified) | inconclusive [cytotoxic, partial curve] |  |
| NS(=O)(=O)c1cc(C(=O)NN2C[C@H]3[C@H]4CCC(C4)[C@H]3C2)ccc1Cl | inconclusive [cytotoxic, partial curve, poor fit] |  |
| CCN1CCC[C@@H]1CNC(=O)c1ccc2c(c1)NC(=O)c1cccc(C)c1S2 | active: 20.6 µM |  |
| O=C(CCCCC(=O)Nc1c(I)cc(I)c(C(=O)O)c1I)Nc1c(I)cc(I)c(C(=O)O)c1I | inconclusive [cytotoxic, single point] |  |
